Measurements: a collection of fitness landscapes (doi:10.1016/j.celrep.2020.107928)
Over roughly 81,000 sequences, “one-hybrid fitness for binding NBS DNA” has its median near -0.1; the highest 2% begin near 0.36. This is one part of the list.

B1: Caulobacter ParB omega fusion; a variant is named by its letters at X, in order, B8GW30 (parent)
chain: MESVVVGEPGMSEGRRGLGRGLSALLGEVDAAPAQAPGEQLGGSREAPIEILQRNPDQPRRTFREEDLEDLSNSIREKGVLQPILVRPSPDTAGEYQIVAGERAWRAAQRAGLKTVPIMVRELDDLAVLEIGIIENVQRADLNVLEEALSYKVLMEKFERTQENIAQTIGKSXSHVANXMRLLXLPDEVQSYLVSGELTAXHARAIAAAADPVALAKQIIEGGLSVRETEALARKAPNLSAGKSKGGRPPRVKDTDTQALESDLSSVLGLDVSIDHRGSTGTLTITYATLEQLDDLCNRLTRGI

Variants of: B1
Experiment: one-hybrid fitness for binding NBS DNA (the Noc-binding site; scaled: cognate 1, non-cognate 0); higher = stronger binding
Details: with NBS DNA site
Summary of the method: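 Pre- and post-selection plasmids were Illumina-sequenced, three replicate libraries were pooled, and any variant with under 10 reads was removed. The libraries were Caulobacter ParB with four specificity codons randomised, selected in E. coli USO through a HIS3 reporter whose site is 19 bp from the promoter. Cells grew 48 hours at 37°C on M9 without histidine, with 0.1 mM IPTG and 5 mM 3-AT. Fitness is the log change in variant-to-wild-type read ratio, rescaled against cognate and non-cognate.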

one-hybrid fitness for binding NBS DNA, 0.294:
RRPH

one-hybrid fitness for binding NBS DNA, 0.695:
QTRH

one-hybrid fitness for binding NBS DNA, 0.476:
QCIR

one-hybrid fitness for binding NBS DNA, ≤ 0.2:
FRVR
PHEC
QNYA
TPTQ
MAIR
TAHF
PWMF
AIHN
SGPL
RQTK
PPHK
QPPV
TINI
RHAH
FGTL
CAWS
MTWT
HTCR
DTDY
VALR
PVYG
KCAC
DVVR
WFST
RDYE
FEVF
TKTS
DPLY
DKKT
TQEV
CNLS
HKDC
ERNY
RHVL
HPQI
GMQC
STMF
LWRF
MWES
MNFI
GYLM
KSSS
MQGS
KSYM
FIPR
CLLS
CKQA
LCCT
CSVD
TSGN
KQMC
CLWP
LLNL
KLWF
QYNK
CSEF
SISW
ASHA
PHLF
IVST
CKGF
RQWW
LRQM
GTNY
NHVR
RNHP
QWCS
DITE
PSIA
KECG
HRCG
QFYK
MSPN
CTDC
VKKI
TYVT
MDPV
SART
HGSA
ALES
GNSK
WWAD
GASS
EFRC
DHCG
KVSL
LYHR
TSDY
NMVM
DFAL
GYPP
WHLV
LLEM
DMNT
TQRV
RGNT
VKKG
CPRI
VRAM
TAFE
AFDN
ASSI
MPRW
LCLF
DTYR
YLTQ
IGLD
HQSS
IVPL
MKSM
FLWC
SQMS
PMAV
PQMG
ACTW
TGMS
SDVV
LCHT
RMQK
VRET
KSYC
LALS
TPQI
VPQR
MAYS
QHHN
FPGR
SCHM
KDLR
NSGS
RWPI
KVHD
PWCG
KQHG
MDPG
HVMY
PAAV
KQMT
LTRY
VETS
ICTL
IKIM
VWKG
YTVM
YSSS
LKLC
YLLD
AYKC
TLCW
LFRD
LEKS
MIWS
KDRV
RTLG
LTWI
QVNC
PSPG
PYAG
TKKV
MDRH
KRKF
PCKL
QASY
DHAG
MNAT
HPRL
RNKQ
GMQR
TLYN
EAAA
EAGL
IDSF
LMSD
DLPF
KLYV
RWWY
ARQM
PVMS
ACGC
MACS
IKGG
QDQK
KYLY
EDAL
SNKV

one-hybrid fitness for binding NBS DNA, 0.523:
QHAR

one-hybrid fitness for binding NBS DNA, 0.219:
RNST

one-hybrid fitness for binding NBS DNA, 0.479:
QYKY

one-hybrid fitness for binding NBS DNA, 0.327:
RTNH

one-hybrid fitness for binding NBS DNA, 0.275:
QCYY

one-hybrid fitness for binding NBS DNA, 0.511:
QKYT

one-hybrid fitness for binding NBS DNA, 0.239:
VRYR
